Source: PubChem BioAssay AID588591 (National Center for Advancing Translational Sciences (NCATS), 2011)
Values joined by “and” are separate entries in the source; they are usually repeats but may differ in a detail not shown here. Identical values can stand only once. The campaign covered roughly 390,000 compounds. About 4,700 (1.2%) were called active. Inconclusive means that the source gave no clear call. Such entries were picked first, then a sample of the others. Calls follow the shape of the dose curve; as a rule, active = well fitted inhibition curve with a large enough effect; inconclusive = small, poorly fitted or top-dose-only effect, or another doubt; inactive = no such curve, though single readings can be large or run the other way. Where the call is inconclusive, the potency comes from a doubtful curve fit.

Molecular target: DNA polymerase eta (Homo sapiens) (UniProt Q9Y253)
UniProt Q9Y253, sequence (Q9Y253 whole entry, looked up): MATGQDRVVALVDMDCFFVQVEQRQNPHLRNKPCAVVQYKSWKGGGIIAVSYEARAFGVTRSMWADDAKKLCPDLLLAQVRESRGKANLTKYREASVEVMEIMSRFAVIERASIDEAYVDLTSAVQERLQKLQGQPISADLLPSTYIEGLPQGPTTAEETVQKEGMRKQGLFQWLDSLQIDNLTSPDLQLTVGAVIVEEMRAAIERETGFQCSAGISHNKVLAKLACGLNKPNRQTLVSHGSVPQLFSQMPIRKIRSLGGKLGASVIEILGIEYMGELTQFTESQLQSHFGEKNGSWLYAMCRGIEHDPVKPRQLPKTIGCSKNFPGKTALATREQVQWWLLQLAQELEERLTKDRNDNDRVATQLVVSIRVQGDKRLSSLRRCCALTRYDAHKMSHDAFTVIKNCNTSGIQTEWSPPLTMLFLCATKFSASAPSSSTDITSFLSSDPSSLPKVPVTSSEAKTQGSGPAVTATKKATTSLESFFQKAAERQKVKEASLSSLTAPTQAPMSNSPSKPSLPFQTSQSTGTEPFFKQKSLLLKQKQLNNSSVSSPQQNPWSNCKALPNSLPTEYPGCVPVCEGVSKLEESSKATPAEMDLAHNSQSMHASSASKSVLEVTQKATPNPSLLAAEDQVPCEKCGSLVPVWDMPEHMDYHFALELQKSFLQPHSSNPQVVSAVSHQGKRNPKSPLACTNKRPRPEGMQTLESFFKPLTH
Assay: qHTS for Inhibitors of Polymerase Eta
Conditions: recombinant Pol eta, fluorescent DNA replication assay; series mostly up to 114 µM; activity change, negative = inhibition: at the top concentration
Outline: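 Pol eta at 10 nM preincubated with compounds 15 min at room temperature; reaction started with fluorescent substrate (50 nM final) and read kinetically at 0 and 10 min.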
% is scaled to controls: 0 for no effect and ±100 for the full control effect; potency is read from the fitted curve at half-maximal effect; tags tell the direction and shape of the fitted curve.

SMILES	activity change, negative = inhibition	Potency
CC1CCCN(S(=O)(=O)c2ccc3c(c2)C(C)(C)C(=O)N3C)C1 (stereo not given)	inactive: -6.52%	–
c1ccc2[nH]c3cc4ncnc4cc3nc2c1	–	inconclusive: 17.8 µM [inhibitor, partial curve, poor fit]
Cc1cccc(N2CC(C(=O)Nc3ccc(N4CCOCC4)cc3)CC2=O)c1C (stereo not given)	–	inconclusive: 79.4 µM [inhibitor, partial curve, poor fit]
CC(Nc1ncnc2c1cnn2-c1cccc(Cl)c1)c1ccccc1 (stereo not given)	inactive: -21.8%	–
CCOc1cc(/C=C2\C(=O)N(c3ccc(C(N)=O)cc3)N=C2C)ccc1OC(=O)c1cccs1	–	active: 50.1 µM
O=C(NCc1ccncc1)C(=O)N/N=C/c1ccc(OCc2ccccc2)cc1	–	inconclusive: 44.7 µM [inhibitor, partial curve]
O=C(CSc1n[nH]c(-c2ccccc2)n1)NC(=O)NCc1ccco1	–	inconclusive: 7.94 µM [inhibitor, full curve, poor fit]
Cc1noc(C)c1NC(=O)Nc1cccc2c1O[C@H](CN(C)C(=O)Nc1ccccc1)[C@@H](C)CN([C@H](C)CO)C2=O	inactive: -18.9%	–
CCOC(=O)CNC(=O)C12CC3CC(C1)CC(c1ccc(C)cc1)(C3)C2	–	inconclusive: 89.1 µM [inhibitor, partial curve, poor fit]
Cc1cccc(/N=C/c2c(O)cc(C)oc2=O)n1	–	inconclusive: 14.1 µM [inhibitor, full curve, poor fit]
Cc1ccc2[nH]c(=O)c3cc(C(=O)NC(C)C)sc3c2c1	–	inconclusive: 39.8 µM [inhibitor, single point]
O=C(CSc1ccccc1)N1CCN(S(=O)(=O)c2ccccc2F)CC1	–	inconclusive: 79.4 µM [inhibitor, partial curve]
Cc1cc(C)c(NC(=O)CN(c2ccccc2)S(=O)(=O)N(C)C)c(C)c1	–	inconclusive: 39.8 µM [inhibitor, partial curve, poor fit] and inconclusive: 89.1 µM [inhibitor, single point]
O=C(Nc1ccc2c(c1)OCO2)c1c[nH]c(=O)n(-c2ccc(F)cc2)c1=O	–	inconclusive: 22.4 µM [inhibitor, single point]
Cc1ccc(NC(=O)c2ccc(Cl)c(N3C(=O)C=CC3=O)c2)cc1	inactive: -2.64%	–
O=C(CSc1nnc(-c2ccc(S(=O)(=O)N3CCCC3)cc2)o1)NCc1ccco1	–	inconclusive: 20 µM [inhibitor, partial curve, poor fit]
COC(=O)c1ccccc1NC(=O)C1CCCN(C(=O)c2cnn(-c3ccc(F)cc3)c2-n2cccc2)C1 (stereo not given)	inactive: -19.8%	–
Cc1ccc(C(C(=O)NC2CCCC2)N(Cc2ccc(F)cc2)C(=O)c2snc(C(N)=O)c2N)o1 (stereo not given)	–	inconclusive: 15.8 µM [inhibitor, partial curve, poor fit]
COc1ccc(NC(=O)CC(=O)Nc2ccc(OC)cc2OC)c(OC)c1	inactive: -5.12%	–
O=C(Nc1cccc(-c2nc3ccccc3s2)c1)c1cc(=O)c2ccccc2o1	–	inconclusive: 3.16 µM [inhibitor, full curve, poor fit]
O=C(Nc1ccc(F)c(Cl)c1)C1CCN(c2ncccn2)CC1	–	inconclusive: 79.4 µM [inhibitor, partial curve, poor fit]
COc1ccc(CCNC(=O)c2c3c(nc4ccccc24)C(=O)N(C2CCCCC2)C3)cc1OC	inactive: -22.1%	–

SMILES	activity change, negative = inhibition	Potency
CCN(CC)c1ccc(/C=c2\sc3nnc(-c4ccccc4Cl)n3c2=O)cc1	–	inconclusive: 5.01 µM [inhibitor, full curve, poor fit]
CC(=O)c1ccc(COC(=O)Cc2ccc([N+](=O)[O-])cc2)cc1	–	inconclusive: 100 µM [inhibitor, partial curve, poor fit]
CC1=Nc2ccc(C)cc2/C1=C/c1c(N)n2c(S(=O)(=O)C(C)C)nsc2nc1=O	–	inconclusive: 20 µM [inhibitor, full curve, poor fit]
CC1=NN(c2cccc(C(=O)O)c2)C(=O)/C1=C\C=C/c1ccccc1	–	active: 17.8 µM
COc1ccc(OC)c(NC(=O)CN(c2ccccc2OC)S(=O)(=O)c2ccc(C)cc2)c1	–	inconclusive: 22.4 µM [inhibitor, partial curve, poor fit]
O=C1NC(c2ccncc2)Nc2sc3c(c21)CCCC3 (stereo not given)	–	inconclusive: 39.8 µM [inhibitor, partial curve, poor fit]
COc1cc(/C=C/[N+](=O)[O-])ccc1OC(=O)c1cc2ccccc2oc1=O	–	inconclusive: 79.4 µM [inhibitor, partial curve]
CCOC(=O)c1ccc(NC(=O)c2cc(F)c(F)cc2Cl)cc1	–	inconclusive: 89.1 µM [inhibitor, partial curve, poor fit]
Cc1cc(=O)oc2cc(OCC(=O)OCC(=O)N3CCC(C)CC3)ccc12	inactive: 1.92%	–
O=c1[nH]n2c(=O)c3c([nH]c2c1N=Nc1ccccc1)CCC3	–	active: 31.6 µM
Nc1ncc(S(=O)(=O)N2CCN(c3ccccc3)CC2)cn1	–	inconclusive: 89.1 µM [inhibitor, single point]
O=C(c1ccc(CSc2ccc(Cl)cc2)cc1)N1CCCC1	–	inconclusive: 79.4 µM [inhibitor, partial curve, poor fit]
CC(NC(=O)c1ccco1)c1nc(-c2ccccc2Cl)no1 (stereo not given)	inactive: -2.44%	–
O=C(NCCc1c[nH]c2ccccc12)c1cccc(Br)c1	–	inconclusive: 39.8 µM [inhibitor, partial curve, poor fit]
CC(C)c1ccc(/C=C2\SC(=O)N(CC(=O)NC3CCS(=O)(=O)C3)C2=O)cc1 (stereo not given)	–	active: 50.1 µM
COc1ccccc1CN(Cc1cc2cc3c(cc2[nH]c1=O)OCCO3)Cc1nnnn1Cc1ccco1	–	active: 31.6 µM
CCOC(=O)N1CCN(S(=O)(=O)c2ccc(C(=O)Nc3ccc4c(c3)C(=O)NC4=O)cc2)CC1	–	inconclusive: 44.7 µM [inhibitor, partial curve]
COc1cccc(CC2(CO)CCCN(Cc3ccccc3-c3ccco3)C2)c1 (stereo not given)	–	inconclusive: 50.1 µM [inhibitor, partial curve, poor fit]
O=c1oc2ccccc2c(O)c1Cc1cc(Cl)c2cccnc2c1O	–	inconclusive: 79.4 µM [inhibitor, single point]
CCCc1cc2c(cc1N(C)S(=O)(=O)c1ccccc1)OCO2	inactive: -6.56%	–
CCC(O)(CC)C(=O)NN(C(=O)Nc1csc2c1CCCC2)c1ccccc1	–	inconclusive: 35.5 µM [inhibitor, single point]
CC(=O)N1CCc2cc(C(=O)CN3CCC(C)CC3)ccc21	–	inconclusive: 22.4 µM [inhibitor, full curve, poor fit]

SMILES	activity change, negative = inhibition	Potency
O=C(COC(=O)c1cc(-c2cccs2)nc2ccccc12)NCc1ccco1	–	active: 11.2 µM
Cc1ccc(C)c(NC(=O)C2CCCN2S(=O)(=O)c2ccc3c(c2)CCCC(=O)N3)c1 (stereo not given)	inactive: -6.99%	–
CCCC(=O)OCc1cnc(C)c2oc(=O)c(C(=O)Nc3ccc(F)cc3C)cc12	inactive: -1.88%	–
CCc1ccc(NS(=O)(=O)c2ccc3[nH]cc(C(=O)NCCc4ccccc4)c(=O)c3c2)cc1	–	inconclusive: 89.1 µM [inhibitor, single point]
COc1ccc(N2CC(c3nc(-c4ccccc4C)no3)CC2=O)cc1Cl (stereo not given)	inactive: -25.9%	–
O=C(O)/C=C/C(=O)Nc1ccc(C2(c3ccc(NC(=O)/C=C/C(=O)O)cc3)c3ccccc3-c3ccccc32)cc1	–	active: 50.1 µM
Nc1c(Cl)cc(-c2[nH]c3cc(C(=O)NCCO)ccc3c(=O)c2O)cc1Cl	–	inconclusive: 56.2 µM [inhibitor, partial curve, poor fit]
CC(=O)NN1C(=O)/C(=C/c2ccc(Br)o2)SC1=S	–	active: 3.98 µM
CN(Cc1ccccc1)C(=O)c1c[nH]c2ccc(S(=O)(=O)Nc3ccccc3F)cc2c1=O	–	inconclusive: 89.1 µM [inhibitor, single point]
COc1ccccc1NC(=O)C(=N\O)/C(C)=N/O	–	active: 14.1 µM
COc1ccccc1CNC(=O)c1ccc(CS(=O)(=O)c2ccccc2OC)o1	inactive: 5.77%	–
Cc1c(CC(=O)NCCCCCC(=O)O)c(=O)oc2c(C)c3oc4c(c3cc12)CCCC4	–	inconclusive: 89.1 µM [inhibitor, partial curve]
COc1ccc(CC(=O)Nc2cc3oc4ccccc4c3cc2OC)cc1	–	inconclusive: 79.4 µM [inhibitor, partial curve, poor fit]
CC(=O)Nc1cccc(C(=O)/C=C/c2ccc(Br)cc2)c1	–	inconclusive: 31.6 µM [inhibitor, single point]
COc1ccc(NC(=O)Cn2nc(C)c3c(C)n(-c4ccccc4)nc3c2=O)cc1OC	–	inconclusive: 89.1 µM [inhibitor, single point]
CN1CCN(C(=O)/C=C/c2ccc([N+](=O)[O-])o2)CC1	inactive: -20.7%	–
Cc1c(CCOC(=O)c2cc([N+](=O)[O-])ccc2Cl)sc[n+]1CCCCS(=O)(=O)[O-]	–	inconclusive: 100 µM [inhibitor, partial curve, poor fit]
Cc1cccc(COc2ccc(-c3cc(C(F)(F)F)n4nc(C)cc4n3)cc2)c1	inactive: -16.3%	–
CCOC(=O)c1cnn(-c2cccc(Cl)c2)c1C1CCN(C(=O)OC(C)(C)C)CC1	inactive: -26.1%	–
Cc1ccc(S(=O)(=O)/N=C2/NC(=O)/C(=C\c3ccco3)S2)cc1	–	inconclusive: 31.6 µM [inhibitor, partial curve, poor fit]
COCCNc1nc2nonc2nc1N1C[C@H]2CC[C@H]1C2	–	inconclusive: 79.4 µM [inhibitor, partial curve, poor fit]
